Over roughly 33,000 sequences, “E-score (-0.5 to 0.5)” has its median near -0.012; the highest 2% begin near 0.27. This is one part of the list.
molecular target: T1, Vhr1 (UniProt P40522); test: PBM E-score (8-mer binding enrichment) (E-score (-0.5 to 0.5)); higher = stronger / more preferred TF binding; most listed sequences are background and not binding sites; conditions: protein concentration: 200 nM; construct: GST-full length
T1 sequence: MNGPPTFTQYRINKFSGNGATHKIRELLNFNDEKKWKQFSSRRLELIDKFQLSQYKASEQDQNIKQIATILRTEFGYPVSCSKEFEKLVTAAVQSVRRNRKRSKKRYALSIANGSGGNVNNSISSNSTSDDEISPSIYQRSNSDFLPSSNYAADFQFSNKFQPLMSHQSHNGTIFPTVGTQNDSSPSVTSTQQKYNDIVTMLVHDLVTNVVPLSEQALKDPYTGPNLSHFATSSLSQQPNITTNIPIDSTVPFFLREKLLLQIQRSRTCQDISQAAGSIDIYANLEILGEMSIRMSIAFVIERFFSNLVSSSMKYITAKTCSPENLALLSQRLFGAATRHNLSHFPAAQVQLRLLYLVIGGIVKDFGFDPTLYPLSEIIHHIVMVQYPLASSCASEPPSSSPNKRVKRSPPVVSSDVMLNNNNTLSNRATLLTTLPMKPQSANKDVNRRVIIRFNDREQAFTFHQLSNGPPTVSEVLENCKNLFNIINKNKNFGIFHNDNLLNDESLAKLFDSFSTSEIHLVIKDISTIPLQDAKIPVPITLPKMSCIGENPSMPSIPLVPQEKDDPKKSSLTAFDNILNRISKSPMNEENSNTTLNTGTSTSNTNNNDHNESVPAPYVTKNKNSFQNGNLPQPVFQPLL
Procedure, shortened: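 Universal all-10-mer Agilent arrays, double-stranded by primer extension on fresh or once-stripped slides, were probed with about 100-200 nM GST-tagged yeast transcription factors made by PURExpress. Fluorescent anti-GST detected bound protein, and masliner normalised the scans. E-scores from the Universal PBM Analysis Suite were given to each ungapped eight-base word pooled with its reverse complement.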

Row | Sequence | PBM E-score
1 | CACCGGAA | 0.116
2 | CCATGTGA | 0.122
3 | AAATTAGA | -0.13
4 | TCCAATCA | -0.0114
5 | CTCGTTGA | -0.00442
6 | ATTGACAG | -0.0194
7 | GAAAGTCC | -0.317
8 | GAATTCAC | 0.0126
9 | GTATCCAA | 0.0689
10 | ATCCTCAA | 0.0223
11 | GCAATCGA | -0.0515
12 | ACGTCATG | 0.0382
13 | ATTACGCG | 0.122
14 | CGGGTAAC | 0.046
15 | ACCAGCGA | 0.0721
16 | CAGCCGCA | 0.0479
17 | ACCTTTGA | -0.0953
18 | GGGAAGAC | -0.0156
19 | TAGCTAAA | -0.365
20 | AGGGATGG | 0.14
21 | AGTTTTGC | -0.0969
22 | CGGACTAA | 0.102
23 | CACACCAG | 0.201
24 | ACGACGCA | 0.00612
25 | AATCCCCA | 0.129

Row | Sequence | PBM E-score
26 | CTGCACAG | -0.108
27 | AGATTTTA | -0.099
28 | TATTGGGA | -0.00505
29 | GGAGGACC | 0.0231
30 | CACCGATG | 0.0846
31 | CCCGATTA | 0.158
32 | AGGACTGC | -0.19
33 | AGACTCAG | 0.242
34 | GGTACTAC | 0.184
35 | CTTCGGGC | -0.0449
36 | AGTAGCCC | 0.0402
37 | CGCAGTTC | 0.00294
38 | CCACTAAG | 0.102
39 | AGTGGCAT | -0.0608
40 | GCGAAGCA | -0.157
41 | AACTCAAT | -0.00662
42 | AACAATGG | 0.0497
43 | GCGAATAC | 0.0661
44 | CGGTACCC | -0.131
45 | AACTGGCA | -0.195
46 | CCGCATGC | 0.0646
47 | CCCAGCAG | 0.0474
48 | ATACTTTA | -0.0673
49 | ATCTCTAG | -0.149
50 | CCGTCCCC | 0.0563

Row | Sequence | PBM E-score
51 | CTGCATAC | 0.235
52 | TAGACAAA | -0.0115
53 | CCAGGCCA | -0.19
54 | AATGTTCG | -0.131
55 | CAGCATCA | 0.105
56 | GCCATTTA | -0.195
57 | TATTTTGA | -0.168
58 | CAAAGGCA | -0.0467
59 | TCGTCCAA | -0.108
60 | ATGGGAAT | -0.292
61 | GCATGCCA | 0.0578
62 | CTGTTCAA | -0.165
63 | CACGCTTC | 0.00973
64 | CCCATTTC | -0.0913
65 | GTGCGCTA | 0.0251
66 | AAATAGCT | -0.0895
67 | AAACGACT | 0.0184
68 | CTATCATA | 0.164
69 | ACTATACT | 0.23
70 | TTCCCCAA | 0.0625
71 | CAAGTTAA | -0.203
72 | ACGATGCC | -0.257
73 | ATCAACAA | 0.215
74 | CTAAAGCC | -0.336
75 | ATAAGTTG | 0.0186

Row | Sequence | PBM E-score
76 | ACGACGTA | -0.108
77 | ATACGGTG | 0.241
78 | AACTACCT | 0.0216
79 | GCGCAACA | 0.0338
80 | CCGGTAAC | 0.0166
81 | ATGAAATG | -0.00211
82 | GGCTGAAC | 0.17
83 | GCGTCTTA | -0.283
84 | CCGACACC | -0.0624
85 | AGGAAGTG | 0.0468
86 | GTACGTGA | 0.00511
87 | GAGAGGCC | -0.195
88 | AATTGTGT | -0.017
89 | GGTTGATA | 0.00555
90 | CGCGCTTA | 0.0997
91 | CATTTACA | -0.0127
92 | CTAGTTTA | -0.201
93 | AGGACGAG | -0.0546
94 | ACTCATAT | 0.229
95 | AAAGTGGA | -0.181
96 | CGTGTTAG | -0.00744
97 | GCATGTTA | 0.0328
98 | GAAAGGTC | -0.163
99 | ACTTGACG | -0.0804
100 | ACCCTCTG | -0.0294

Row | Sequence | PBM E-score
101 | CTTTGCGA | 0.0545
102 | AAGGCCTA | -0.183
103 | GGGTGACC | 0.0504
104 | CCTGGGAG | -0.0626
105 | AAGGGCTA | -0.247
106 | CGAGGATC | -0.0337
107 | CGAACAGA | 0.032
108 | ACCGACAT | 0.127
109 | GTCGCGAA | 0.0553
110 | ACCAAACC | 0.18
111 | TATCCGAA | 0.0741
112 | GAGAGCCA | -0.0281
113 | CCGGGTTC | 0.169
114 | GCCAGGTA | -0.0461
115 | CCAGGCTC | 0.00703
116 | AAGATCAC | 0.071
117 | AACGTTAC | -0.158
118 | AACTATAC | 0.114
119 | GCGATGCA | -0.195
120 | GAAGATCA | -0.185
121 | AGTTCATC | -0.151
122 | AAGGATGT | 0.0183
123 | GGCGGGTA | 0.0114
124 | CACCGTTA | 0.0439
125 | AGGCTAAA | -0.177

Row | Sequence | PBM E-score
126 | GTCTATGA | 0.107
127 | CCGGCAAG | 0.00828
128 | AAATATTG | 0.126
129 | AATGATTA | 0.304
130 | AAGGATCC | -0.135
131 | GGCGACAC | 0.0915
132 | CGTCTCGA | 0.129
133 | GACATTCC | -0.181
134 | AGGCGCTA | -0.00809
135 | CCGCCCAC | 0.121
136 | CACTCATG | 0.217
137 | CTTGCACC | -0.00031
138 | ACGCACAG | 0.04
139 | CAAAACAA | -0.13
140 | ATTCTGGA | -0.0665
141 | CGAGGAAC | 0.0034
142 | AGAAATGC | 0.0132
143 | ACTATTAA | 0.0552
144 | AAGCAGCA | -0.166
145 | ATTAGTCA | 0.381
146 | AATATCGG | -0.0669
147 | GTTGCCAA | -0.145
148 | CGGTCTGA | 0.143
149 | AATCGCAG | 0.0939
150 | CGTGTACC | 0.0634

Row | Sequence | PBM E-score
151 | CACATACG | -0.0445
152 | CAGTTGGC | -0.14
153 | ACGCGATA | -0.181
154 | GGCCATTA | -0.0228
155 | ATTGGATG | 0.0194
156 | AGGTCTTC | -0.185
157 | GATCTTTA | 0.00452
158 | GACCACCA | 0.116
159 | AATGGAGT | -0.016
160 | ACCTAGCT | -0.0595
161 | ATGTCCTG | 0.0271
162 | AAAATCAT | 0.151
163 | TCAGACAA | 0.00803
164 | CAGATAAA | -0.067
165 | GGGCGATA | -0.0965
166 | GTGCCCCA | 0.0263
167 | AATTTCTA | -0.201
168 | AAACCCGG | -0.0675
169 | ACCCGAAG | 0.00449
170 | CACTTTCC | -0.198
171 | GCGTTAGC | -0.263
172 | AACAATCA | 0.222
